The values that follow come from ChEMBL document CHEMBL4888484, “Replenishing the malaria drug discovery pipeline: Screening and hit evaluation of the MMV Hit Generation Library 1 (HGL1) against asexual blood stage Plasmodium falciparum ,using a nano luciferase reporter read-out” (2022).

Molecules are shown by their SMILES. Among all 150,000 compounds or so, about 540 (0.36%) showed an effect of 50% or more. The list shows a part of the results.

For this experiment, the system named is Plasmodium falciparum. The experiment in a line: Primary screen in NF54 nanoGlo assay, in single point, at 2uM, 72h; a lower Z score goes with more inhibition. Type of experiment: functional, Erythrocyte. The conditions noted are these: timepoint 72 hour.
By % Inhibition is commonly meant the change of the read-out against control, counted positive when it falls. On to `CCOC(=O)[C@H](C)N1CCCN(C(=O)CC)CC1`, for which the “% Inhibition” value is on record as 5% and the Z score is given as -0.44.

In the case of `O=C(C[C@H]1CCCOC1)Nc1ccc(Oc2nnn[nH]2)cc1`, the “% Inhibition” value was determined as 0% and the Z score is -0.09.

In the case of `COc1ccc(OC)c(Cc2nnc(CCC(=O)NCc3nc4ccccc4s3)o2)c1`, the “% Inhibition” value was -11% and the Z score is 2.

For the compound `Cc1c(CC(=O)Nc2ccc3c(c2)CCC3)cnn1C`, the “% Inhibition” value is given as -2% and the Z score came out at 0.34.

Turning to `O=C(N[C@H]1CC(=O)N(c2ccccc2)C1)c1cccc(-c2ncon2)c1`, the “% Inhibition” value is recorded as -14% and the Z score is 1.89.

For `CCC(NC(=O)CCc1ccc(C)o1)C(c1ccc(C)cc1)n1cncn1` (stereo unspecified), the “% Inhibition” value is listed as 7% and the Z score is on record as -0.73.

Consider `Cc1nnc(N2CC[C@H](C)C3(CCC3)C2)n1C`, for which the “% Inhibition” value is listed as -7% and the Z score was 0.66.

As to `CCONC(=O)[C@H](C)Oc1cccc(C#N)c1`, the “% Inhibition” value is -8% and the Z score turned out to be 1.22.

`O=C(Nc1cccnn1)Nc1ccn(CCc2ccncc2)n1`: the “% Inhibition” value was -7% and the Z score was 0.81.

In the case of `COc1cc(OC)cc(-c2onc(C)c2C(=O)NCCc2ccc(F)cc2)c1`, the “% Inhibition” value is reported as -4% and the Z score was 0.61.

As for `CC(C)C(=O)N1CCC(NC(=O)[C@H](O)c2ccccc2Cl)C1` (stereo partly specified), the “% Inhibition” value was -13% and the Z score is reported as 1.9.

Consider `CC(C)c1cccc2c1CCN(C(=O)C1CCN(C)CC1)C2`, for which the “% Inhibition” value was -2% and the Z score was determined as 0.39.

For `Cc1cc(C)c2nc(CN3CCC[C@H]3C(=O)N3CCOCC3)cc(O)c2c1`, the “% Inhibition” value is recorded as -10% and the Z score is 0.9.

Take `COc1ccc(NC(=O)CC(=O)NCc2cc(C)n[nH]2)c(OC)c1`: the “% Inhibition” value is listed as -10% and the Z score was 1.23.

For the compound `CCc1ccc(NC(=O)CC2CCN(S(=O)(=O)c3ccc4c(c3)CCN4C(C)=O)CC2)cc1`, the “% Inhibition” value was -18% and the Z score is 2.29.

Consider `CC(C)(C)OC(=O)N1CCC(=C2CC2)CC1`, for which the “% Inhibition” value is listed as -14% and the Z score is given as 1.69.

In the case of `CO[C@H]1[C@H](NC(=O)c2cccs2)c2ccccc2C12CCN(Cc1c(F)ccc(F)c1F)CC2`, the “% Inhibition” value is -1% and the Z score is 0.24.

For the compound `COc1ccccc1CNC(=O)C(F)(F)C1(O)CCC1`, the “% Inhibition” value was -2% and the Z score is given as 0.34.

Turning to `Cc1ccc(-c2noc(C(C)N3CCN(C(C)C(=O)Nc4ccc(OC(F)F)cc4)CC3)n2)cc1` (stereo unspecified), the “% Inhibition” value was found to be 4% and the Z score is given as -0.72.

Regarding `CCCCS(=O)(=O)NC(=O)c1cc(F)c(F)c(F)c1`, the “% Inhibition” value is on record as -1% and the Z score worked out at 0.06.

On to `CN(CC1(O)CCCC1)C(=O)C1(C)CC1F` (stereo unspecified), for which the “% Inhibition” value is given as -2% and the Z score is 0.26.

In the case of `COc1ccc(NC(=O)N2CC=C(c3cn(C(C)C)c4ncccc34)CC2)cc1Cl`, the “% Inhibition” value was -3% and the Z score turned out to be 0.37.

As to `COc1ccc(-n2nnnc2-c2cnc3ccccc3c2-c2ccccc2)cc1`, the “% Inhibition” value is -11% and the Z score was 1.25.

Take `O=C1NC(=O)N2CCN(CC3CCC(c4ccccc4)CC3)C[C@@H]12` (stereo partly specified): the “% Inhibition” value is on record as 26% and the Z score is -2.91.

With `Cc1ccc2cc(CN3CCn4cccc4[C@H]3c3ccccn3)c(=O)[nH]c2c1`, the “% Inhibition” value is -5% and the Z score was determined as 0.83.

Take `COC(=O)c1cc(NC(=O)C(Cl)(Cl)Cl)cc(C(=O)OC)c1`: the “% Inhibition” value is recorded as 2% and the Z score is given as -0.29.

As for `COc1cc(-c2cccc(-c3cc[nH]n3)c2)ccc1O`, the “% Inhibition” value is -2% and the Z score amounted to 0.4.

Take `Cc1ccn2cc(C(=O)N3CCN(C)CC3)nc2c1`: the “% Inhibition” value is listed as -8% and the Z score was 1.57.

As to `CS(=O)(=O)N1CCC[C@@H]1CCc1noc(-c2cccnc2)n1`, the “% Inhibition” value is on record as -4% and the Z score is reported as 0.64.

For `COc1ccc(CN2CCO[C@]3(CCOC3)C2)cc1OCc1ccccc1`, the “% Inhibition” value is given as -7% and the Z score amounted to 1.07.

Consider `CCc1noc(CNC(=O)CCc2scnc2C)n1`, for which the “% Inhibition” value is listed as -5% and the Z score is on record as 0.73.

On to `Cn1nc(C(=O)NCc2cccs2)cc1C(=O)NCc1cccs1`, for which the “% Inhibition” value is 43% and the Z score is given as -5.76.

In the case of `CN(C(=O)c1cnc(-c2ccccc2)nc1)C1C2CCOC2C1(C)C` (stereo unspecified), the “% Inhibition” value was -9% and the Z score stood at 1.38.

Regarding `CC(C)N(C)CC(=O)NCC1(O)CCCCC1`, the “% Inhibition” value is -4% and the Z score is 0.62.

Consider `Cn1nc(-c2ccccn2)cc1CNC(=O)c1cccc(Cl)c1`, for which the “% Inhibition” value was -4% and the Z score is reported as 0.5.

As to `CNS(=O)(=O)N1CCC[C@H](c2ccncc2)CC1`, the “% Inhibition” value is given as -14% and the Z score is on record as 2.77.

On to `O=C(Nc1ccccc1Oc1ccccc1)c1n[nH]c(=O)c2ccccc12`, for which the “% Inhibition” value is -15% and the Z score is listed as 1.98.

Take `CCNC(=O)c1ccc(-c2ccccc2CN2CCOCC2)s1`: the “% Inhibition” value is 0% and the Z score is recorded as 0.01.

As for `CC[C@H](C)NC(=O)c1cc(NS(=O)(=O)c2ccc(C)cc2)cnc1N1CCNCC1`, the “% Inhibition” value is on record as -6% and the Z score is reported as 0.79.

As to `O=C(CN1C(=O)CN(C(=O)Nc2ccccc2)c2ccccc21)NCc1ccccn1`, the “% Inhibition” value was -12% and the Z score came out at 1.6.

For `CCCc1sc(N(C(=O)c2ccc(F)cc2)c2ccc(OC)cc2)nc1-c1ccccc1`, the “% Inhibition” value was -12% and the Z score is given as 1.9.

On to `COc1cc(-c2cc(C)cc(CN3CCCC3)c2)cc(OC)c1OC`, for which the “% Inhibition” value is 5% and the Z score was -0.92.

On to `O=C(c1ccc(-n2cnnn2)cc1)N1CCCCCCC1`, for which the “% Inhibition” value is on record as -21% and the Z score came to 2.77.
